The experiment addresses T1, CesT (residues 1-156), 6xHis-tagged, wild type (enteropathogenic E. coli (EPEC) O127:H6 E2348/69), P21244.
T1 chain: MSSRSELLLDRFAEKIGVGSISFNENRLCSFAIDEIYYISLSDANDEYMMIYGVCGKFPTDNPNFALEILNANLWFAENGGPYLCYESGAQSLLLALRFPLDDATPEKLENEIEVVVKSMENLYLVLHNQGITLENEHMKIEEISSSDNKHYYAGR
As to the kind of experiment: SEC. As to conditions: remark: other sources report otherwise.

B1: CesT (residues 1-156), 6xHis-tagged, wild type, P21244 1-156 (natural protein)
chain: MSSRSELLLDRFAEKIGVGSISFNENRLCSFAIDEIYYISLSDANDEYMMIYGVCGKFPTDNPNFALEILNANLWFAENGGPYLCYESGAQSLLLALRFPLDDATPEKLENEIEVVVKSMENLYLVLHNQGITLENEHMKIEEISSSDNKHYYAGR
On to B1, for which the stoichiometry N (in general, a count of units in the complex or per binding partner) amounted to 2.

(Values after publication PMC5864733.)
